The list shows a part of the results. The full chains were built here from the parent and the listed change. Values near 0.05 are background.
B1: TEV protease; numbered along this chain (parent)
chain: MGESLFKGPRDYNPISSSICHLTNESDGHTTSLYGIGFGPFIITNKHLFRRNNGTLVVQSLHGVFKVKDTTTLQQHLVDGRDMIIIRMPKDFPPFPQKLKFREPQREERICLVTTNFQTKSMSSMVSDTSCTFPSGDGIFWKHWIQTKDGQCGSPLVSTRDGFIVGIHSASNFTNTNNYFTSVPKNFMELLTNQEAQQWVSGWRLNADSVLWGGHKVFMVKPEEPFQPVKEATQL

Variants of: B1
Assay: raw area under fraction-flipped curve 0-4 h after induction (AUC4h, not background-subtracted), DNA-recorder readout of cleavage of the substrate (dimensionless); higher = more cleavage of the substrate by the protease variant
Details: temperature: 34 °C; time window: 0-4 h after rhamnose induction
Protocol: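 In vivo DNA recorder in E. coli TOP10(DE3) ΔrhaA at 34 °C. Each TEVp single-site mutant (parent TEVp 0) is paired with a single-site variant of the 7-mer TEVs (canonical ENLYFQ|S). The substrate sits between flexible linkers in a Bxb1-sfGFP-TEVs-SsrA fusion, so cleavage stabilises Bxb1 and speeds flipping of a recombination array, read by NGS. The value is the raw area under the fraction-flipped curve over 0-4 h after rhamnose induction (AUC4h), with ≥20 reads per time point. It is not background-subtracted; inactive controls average about 0.047.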
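Further: Bxb1 expression induced with 0.2% (w/v) L-rhamnose at OD600 near 0.5, cultures sampled hourly, flipped fraction per protease–substrate barcode pair counted by paired-end Illumina sequencing.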

| Variant | area with substrate FNLYFQS | area with substrate GNLYFQS | area with substrate INLYFQS | area with substrate PNLYFQS | area with substrate TNLYFQS | area with substrate WNLYFQS | area with substrate ANLYFQS | area with substrate CNLYFQS | area with substrate DNLYFQS | area with substrate HNLYFQS | area with substrate KNLYFQS | area with substrate MNLYFQS | area with substrate YNLYFQS | area with substrate LNLYFQS | area with substrate RNLYFQS | area with substrate VNLYFQS | area with substrate NNLYFQS | area with substrate SNLYFQS | area with substrate QNLYFQS |
| --- | --- | --- | --- | --- | --- | --- | --- | --- | --- | --- | --- | --- | --- | --- | --- | --- | --- | --- | --- |
| V200N | 0.0719 | 0.0631 | 0.0584 | 0.0236 | 0.0406 | 0.0723 | – | – | – | – | – | – | – | – | – | – | – | – | – |
| T233G | – | – | 0.0595 | – | 0.074 | 0.0597 | 0.0837 | 0.0824 | 0.0789 | 0.0692 | 0.0737 | 0.064 | 0.0297 | – | – | – | – | – | – |
| T233K | 0.0616 | – | – | – | 0.0649 | 0.0488 | 0.058 | 0.0628 | 0.0814 | 0.0695 | 0.0631 | 0.0889 | 0.0647 | 0.062 | 0.079 | 0.0253 | – | – | – |
| T233H | 0.0915 | – | 0.0699 | 0.043 | 0.0824 | 0.0603 | 0.0534 | 0.0797 | 0.0773 | 0.0598 | – | – | 0.0499 | 0.0735 | – | 0.0686 | – | – | – |
| V217A | – | 0.0804 | 0.0672 | – | 0.0618 | 0.0563 | 0.0489 | 0.0631 | 0.0615 | 0.0592 | – | 0.0298 | – | – | – | 0.0512 | 0.0519 | 0.0613 | – |
| V217Q | 0.0484 | 0.0635 | – | 0.0676 | 0.0637 | 0.0528 | 0.0525 | 0.0537 | 0.0742 | 0.06 | 0.0583 | 0.0549 | – | – | 0.0521 | 0.0613 | 0.0582 | – | – |
| H215D | – | 0.0353 | 0.0616 | 0.0526 | 0.0586 | 0.054 | 0.0569 | 0.07 | 0.0548 | 0.0563 | 0.0628 | – | 0.0509 | 0.0737 | – | – | 0.0703 | 0.057 | – |
| H215W | 0.0577 | 0.0731 | 0.0573 | 0.0755 | 0.063 | 0.0545 | 0.0542 | 0.0514 | 0.0816 | 0.0541 | 0.0422 | 0.0565 | 0.0591 | 0.0676 | 0.0532 | 0.0588 | 0.0601 | 0.0714 | – |
| V220P | 0.0472 | 0.0629 | 0.0575 | 0.0711 | 0.0583 | 0.0574 | 0.0494 | 0.0659 | 0.0754 | 0.0585 | 0.0687 | 0.0623 | 0.0599 | 0.0564 | – | – | 0.0661 | 0.0634 | – |
| V220I | 0.0663 | – | 0.0779 | 0.0611 | 0.0689 | 0.0547 | 0.0899 | 0.0895 | 0.0895 | 0.0561 | – | 0.0618 | – | 0.074 | – | 0.0648 | 0.0954 | 0.064 | – |
| Q194R | – | 0.0545 | 0.0552 | 0.0651 | 0.0981 | 0.0631 | 0.0756 | 0.0563 | 0.0914 | 0.0504 | 0.0692 | 0.0725 | 0.0621 | 0.0677 | – | 0.0585 | – | 0.0524 | – |
| Q197K | – | – | – | – | 0.0615 | 0.0665 | 0.0349 | 0.0656 | 0.0699 | 0.0533 | 0.0512 | 0.0322 | 0.065 | 0.0602 | – | 0.0678 | – | 0.0655 | – |
| Q197G | 0.174 | – | 0.052 | 0.062 | 0.0599 | 0.0593 | 0.0693 | 0.0849 | 0.0884 | – | 0.0687 | 0.055 | 0.0601 | 0.0633 | – | 0.0681 | – | 0.0573 | – |
| N206G | 0.0327 | 0.0988 | 0.062 | – | 0.0632 | 0.059 | 0.0745 | 0.0721 | 0.0704 | 0.0543 | – | 0.0722 | 0.0574 | 0.0698 | – | 0.102 | 0.0641 | 0.0574 | – |
| N206H | – | 0.0726 | 0.0753 | – | 0.0547 | 0.0591 | 0.0819 | 0.0613 | 0.0722 | 0.0645 | – | – | 0.0662 | 0.0787 | 0.055 | 0.0586 | 0.0611 | 0.042 | – |
| E224F | 0.0607 | 0.0882 | – | 0.0707 | – | 0.0629 | – | – | – | – | – | – | 0.0577 | – | – | 0.0573 | 0.0821 | 0.0561 | – |
| W199H | 0.0663 | 0.0631 | – | 0.058 | 0.0698 | – | 0.0447 | 0.0584 | 0.0615 | – | 0.0593 | 0.0599 | – | 0.0722 | – | – | – | 0.0561 | – |
| W203Y | 0.0643 | 0.0612 | – | 0.0588 | – | – | 0.0611 | 0.0731 | 0.07 | 0.0599 | – | – | 0.0578 | 0.0593 | – | – | – | 0.0631 | – |
| W212K | 0.0479 | – | 0.0449 | 0.0512 | 0.0605 | 0.0637 | 0.0575 | 0.0575 | 0.0653 | 0.0536 | 0.0411 | 0.0714 | 0.0596 | 0.0592 | 0.0697 | – | 0.052 | 0.0581 | – |
| S201K | – | – | – | – | 0.0775 | – | 0.0767 | 0.0816 | 0.0657 | – | – | 0.0711 | – | 0.0518 | – | – | – | 0.0832 | – |
| S201W | 0.0642 | 0.0627 | 0.0618 | 0.0592 | 0.0573 | 0.0555 | 0.057 | 0.0563 | 0.0556 | 0.0565 | 0.0573 | 0.0537 | – | 0.0606 | – | – | 0.0544 | 0.041 | – |
| G202A | 0.0545 | 0.0611 | 0.0558 | – | 0.0579 | 0.06 | 0.0052 | 0.0738 | 0.0632 | 0.0683 | 0.0665 | 0.0354 | 0.0586 | 0.0872 | – | – | – | 0.0681 | – |
| R204T | 0.0673 | 0.0624 | – | – | 0.064 | 0.0661 | 0.0649 | 0.121 | 0.0837 | 0.0697 | 0.0688 | 0.0627 | 0.0715 | 0.0752 | – | 0.0665 | 0.0734 | 0.0685 | 0.0571 |
| P222C | 0.0645 | 0.0689 | 0.0712 | 0.0587 | 0.0617 | 0.0704 | 0.066 | 0.0989 | 0.0677 | 0.0576 | 0.068 | 0.0402 | 0.0698 | 0.0599 | – | 0.0643 | – | 0.0938 | – |
